These are yes or no findings as the source states them, for the method shown. Binding seen in cells or lysates may run through a third protein. Some results given as binding are weak or reduced against the parent protein; the word gives no strength. For part of these data: Tags and fused reporters may be left off the sequences shown.
Tests used:
[1] = biological target: T1, Med19-VC (full-length Med19 fused to the C-terminal fragment of Venus) (Drosophila melanogaster) (UniProt Q9VVL6); experiment: split reporter; BiFC with Venus VN and VC fusions co-expressed from UAS constructs in Drosophila embryos under engrailed-Gal4, Ubx-Gal4 or abdA-Gal4 control
T1 sequence: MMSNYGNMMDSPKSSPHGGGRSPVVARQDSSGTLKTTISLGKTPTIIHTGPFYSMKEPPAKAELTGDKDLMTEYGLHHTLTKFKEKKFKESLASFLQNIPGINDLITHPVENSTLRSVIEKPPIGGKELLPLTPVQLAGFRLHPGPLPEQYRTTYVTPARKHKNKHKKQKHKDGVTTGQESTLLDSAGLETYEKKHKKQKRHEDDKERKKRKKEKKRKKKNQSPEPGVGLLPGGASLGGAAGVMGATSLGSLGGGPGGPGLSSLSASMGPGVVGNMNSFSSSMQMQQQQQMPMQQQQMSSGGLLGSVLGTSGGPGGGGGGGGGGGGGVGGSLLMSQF

By UniProt entry, the sequences of proteins in these tests, tags left out. Residues count along the entry.
UniProt P07548: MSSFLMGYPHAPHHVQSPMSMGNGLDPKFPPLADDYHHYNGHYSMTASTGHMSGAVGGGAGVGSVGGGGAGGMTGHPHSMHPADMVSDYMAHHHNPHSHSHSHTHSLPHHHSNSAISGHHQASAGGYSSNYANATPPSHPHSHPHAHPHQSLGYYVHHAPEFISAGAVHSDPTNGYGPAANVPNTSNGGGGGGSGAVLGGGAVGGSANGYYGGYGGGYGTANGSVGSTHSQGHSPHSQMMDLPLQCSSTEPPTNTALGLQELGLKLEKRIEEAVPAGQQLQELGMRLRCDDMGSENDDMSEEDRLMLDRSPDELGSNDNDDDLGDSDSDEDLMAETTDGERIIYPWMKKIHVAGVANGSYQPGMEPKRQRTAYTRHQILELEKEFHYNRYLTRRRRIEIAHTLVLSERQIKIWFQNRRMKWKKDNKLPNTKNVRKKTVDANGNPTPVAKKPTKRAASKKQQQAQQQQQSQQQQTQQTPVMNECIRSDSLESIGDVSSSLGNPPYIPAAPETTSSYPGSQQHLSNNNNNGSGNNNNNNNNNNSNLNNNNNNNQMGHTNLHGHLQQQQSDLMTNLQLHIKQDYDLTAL
UniProt P83949: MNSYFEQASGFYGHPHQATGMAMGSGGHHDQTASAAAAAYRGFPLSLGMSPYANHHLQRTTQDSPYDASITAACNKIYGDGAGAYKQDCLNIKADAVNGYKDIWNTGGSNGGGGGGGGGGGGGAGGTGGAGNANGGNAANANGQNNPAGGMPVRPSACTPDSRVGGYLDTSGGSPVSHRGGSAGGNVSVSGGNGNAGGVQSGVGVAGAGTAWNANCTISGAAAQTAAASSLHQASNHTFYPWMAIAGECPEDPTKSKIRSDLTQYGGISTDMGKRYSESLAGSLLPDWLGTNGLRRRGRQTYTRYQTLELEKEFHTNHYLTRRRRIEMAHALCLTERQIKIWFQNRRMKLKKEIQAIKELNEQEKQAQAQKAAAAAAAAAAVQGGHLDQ
UniProt P31264, residues 119-327: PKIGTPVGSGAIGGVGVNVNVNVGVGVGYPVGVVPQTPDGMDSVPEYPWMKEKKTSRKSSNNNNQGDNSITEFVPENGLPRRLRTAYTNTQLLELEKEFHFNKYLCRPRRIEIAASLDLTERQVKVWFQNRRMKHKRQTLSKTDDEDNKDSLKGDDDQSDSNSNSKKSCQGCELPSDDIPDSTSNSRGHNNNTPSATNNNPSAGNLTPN
UniProt P02833, residues 279-378: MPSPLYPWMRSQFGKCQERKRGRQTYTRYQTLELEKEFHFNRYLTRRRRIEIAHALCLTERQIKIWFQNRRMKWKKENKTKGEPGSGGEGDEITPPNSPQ
UniProt P29555: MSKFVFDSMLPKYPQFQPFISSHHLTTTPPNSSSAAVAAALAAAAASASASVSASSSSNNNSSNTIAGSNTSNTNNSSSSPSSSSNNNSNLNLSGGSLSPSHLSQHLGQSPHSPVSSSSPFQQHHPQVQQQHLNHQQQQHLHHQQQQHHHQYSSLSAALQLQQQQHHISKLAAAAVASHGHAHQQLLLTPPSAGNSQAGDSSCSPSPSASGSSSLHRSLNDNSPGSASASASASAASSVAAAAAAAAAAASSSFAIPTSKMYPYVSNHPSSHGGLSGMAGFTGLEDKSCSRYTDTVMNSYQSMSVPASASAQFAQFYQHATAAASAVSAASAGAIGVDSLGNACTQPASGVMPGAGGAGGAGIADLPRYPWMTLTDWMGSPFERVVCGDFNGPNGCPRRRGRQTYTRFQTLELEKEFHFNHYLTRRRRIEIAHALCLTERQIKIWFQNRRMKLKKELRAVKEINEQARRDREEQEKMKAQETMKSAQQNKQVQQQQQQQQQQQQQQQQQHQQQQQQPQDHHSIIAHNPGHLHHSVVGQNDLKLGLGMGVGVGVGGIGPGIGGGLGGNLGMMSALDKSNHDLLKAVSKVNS

[2] = biological target: T1, Med19-VC (full-length Med19 fused to the C-terminal fragment of Venus) (Drosophila melanogaster); experiment: co-IP; transfected Drosophila S2 cells; extracts in IP buffer (50 mM TrisHCl pH 8, 150 mM NaCl, 0.5% NP40, 1 mM EGTA), 4°C, immunoprecipitated with mouse anti-GFP (VC tag) and G-protein Sepharose; Western blots with anti-Med1, anti-Med19, anti-HA
[3] = biological target: T1, Med19-VC (full-length Med19 fused to the C-terminal fragment of Venus) (Drosophila melanogaster); experiment: as above; remark: listed apart in the source
[4] = biological target: GST-Deformed (full-length) (Drosophila melanogaster) (UniProt P07548); experiment: pull-down; 35S-labelled Med19 (full length or deleted versions) probing immobilised GST-Hox fusions or GST-HDAntp; standard conditions, essentially as in ref. 68 (Figures 1A, 5A); only the target purified
[5] = biological target: GST-Ultrabithorax (full-length) (Drosophila melanogaster) (UniProt P83949); experiment: as above
[6] = biological target: GST-Pb2 (Proboscipedia middle with HD, a.a. 119–327) (Drosophila melanogaster) (UniProt P31264); experiment: as above
[7] = biological target: GST-Antp4 (Antennapedia C-ter with HD, a.a. 279–378) (Drosophila melanogaster) (UniProt P02833); experiment: as above

Question: “VN-Ubx (full-length Ubx fused to the N-terminal fragment of Venus) (from UniProt P83949 1-389)” was tested. Which binding [1] did it give?
Answer: Its binding is “binds”.

Question: For Ubx-HA (from UniProt P83949 1-389), which binding [2] is on record?
Answer: Its binding is “binds”.

Question: Which binding [1] does the source give for VN-Dfd (from UniProt P07548 1-586) here?
Answer: Its binding is “binds”.

Question: Which binding [1] does the source give for “VN-AbdA (full-length Abdominal-A fused to the N-terminal fragment of Venus) (from UniProt P29555 1-590)” here?
Answer: Its binding is “no binding”.

B1: endogenous Med1 (three isoforms) (protein, UniProt Q9VP05 1-1475)
chain: MSGSNAKSSGTGFGSHIPSIEEKNKQIQQETMMEKLRAKYRNKPKSYEEIKKSVRMYFIEKHYPLDPLCKATLQSALDKLQHYIKVTSRHGLVERLESLSRQLGLKFMEDQQLLFISTDMFYVEILLDAAGSLSDVKVHHECKIEQQSSELVACLKSGDFADFTVQLEGLSSIYQLNAEPKVKKKAFVALQAMETDIQSLYQLHLQGHSGDSYSLMTSSSVGLVLPRRGGHPMRLTYFCPPLHLPEGDPKLASGDFTIDQVMRSSYGLSATINLEGSSANKLQTLPTVTLVRDAQTGLEVPTYAQLNQNNSLLMPATFVLRLNKPMPVCLESLKALGLPGLDSVATPPGPPTTVLNLIVQTASKQAIKNTQRGLYVNLPKETHCYFFTDNRKLQGTLVSSLPFTEPAQVPRIVAFLKKQALFYTLLASCVREQQKQYNDMDSTVILEVTAVSFNQITVELQHPYEESLATVDFLLEDGQPTCSVYCLTNEYELLSQKLTRTARKVVSIPMVIYKLLKCWDEEHEFKLHGAIGPGSGSGAIGGGGMSGGGPVSGVGNNFSQFSMDTPTPSDGSLPGGGFANINNLKMDAKSRSLADAFAASTSAAAAIAGLINLKRETDPQSGSSASGTTVSGSSSSSGSAKTSDHDIADKYKNIWKDKTPNLKHCVSITPIPGDGKSGSAGGVSGVEVQRTGGIEIIPLNAQAAIAGGGVTASSSATPTTITITPITGKDPSKDSTKKSTAASAGVGVAAKRPHESSTSSSSTSGCSGSGSSMSSSASSGSSDTQKEKKRKKKRDDSPMGPPEKIYSRQNSPAGGADASATGGVVRKFSSPSSSPKAGGGGQGLMAGVPTARPSPKHSPVYSSPKHNTASNSPKSPFGTHSPKHGSSGKPSMSTLKSAATAATILSPKGDKSSSAVGNTSSGPSASSGSSGATGLVRSFASVGAPPPPPPIPPLASSSGSISSSQSLKKEKTSSASGSSSTSSSATAGVASGGGISPASVAAAVAALKSSQQQMKSVASLSHLAAGGGLGSYAAPSGAGASGAAAVVVGAGAGAGAGASGLELSALRKGMAGGAVSLMTSTAALAPTIPAPTTTVAAGSAASLVSPVSAVVGQGQETAGAAAAATLATATILQQQPQPGAAPTSSCLTTSGGSSDSAGSINPAGASTEYMVKPSSQEGLKLTINKTGSSKSSGTGSGSSSSSGLQAKAKSSSSGATSFAGSTGSTKKQHTGLKPGVNSGPASKKATAAVSSATASSSKHFFQKANSSGNLSSKLSGSGSGGGIPLTKSNSTNSFQEHNAPRRRPSMGALASGSSGGGSGQRKLGSASGGGSGSSGSVSPALSGSMSQPPPRFDHHTDMMTILQYASPTMAASMEGFIKGLHNKFQIPKLSQRGSGGNTTSGRSTPSGSSEPALAGTSSSILGPIASSTGLTEPEAKPPVPPSQSGNEGLLNLSSTAGTPSADGIDEELLASLAGE
Question: With B1 as the molecule, how does the binding [3] read?
Answer: Its binding is “binds”.

B2: 35S-labelled full-length Med19 (Mediator complex subunit 19) (protein, UniProt Q9VVL6 1-337)
chain: MMSNYGNMMDSPKSSPHGGGRSPVVARQDSSGTLKTTISLGKTPTIIHTGPFYSMKEPPAKAELTGDKDLMTEYGLHHTLTKFKEKKFKESLASFLQNIPGINDLITHPVENSTLRSVIEKPPIGGKELLPLTPVQLAGFRLHPGPLPEQYRTTYVTPARKHKNKHKKQKHKDGVTTGQESTLLDSAGLETYEKKHKKQKRHEDDKERKKRKKEKKRKKKNQSPEPGVGLLPGGASLGGAAGVMGATSLGSLGGGPGGPGLSSLSASMGPGVVGNMNSFSSSMQMQQQQQMPMQQQQMSSGGLLGSVLGTSGGPGGGGGGGGGGGGGVGGSLLMSQF
modifications: 35S-labelled
Question: Which results are given for B2?
Answer: binding [4]: binds; binding [5]: binds; binding [6]: binds; binding [7]: binds

— paper PMC4006704
